Here are results for 172 sequences from paper PMC10668032.

This is one part of the list. At the low end of the ranking the order means little.

The target in this experiment is SIX1-Q177R homeodomain (UniProt Q15475). The experiment is described as follows: universal protein binding microarray. The note with it: Universal all-10-mer PBM (8x60K, AMADID 030236), 300 nM GST-tagged protein, Alexa Fluor 488 anti-GST; buffer, salt, pH and temperature not stated; high values mean tight binding; most listed sequences are background and not binding sites; double strand, one strand shown.
ATGCAATC: the binding signal was -0.134 E-score. On to CACTCAGG, for which the binding signal came out at 0.235 E-score. The figure for AATCTGTC is -0.225 E-score; for ACACGCTA it is 0.383 E-score. The same measure for AGCCTACT: -0.0294 E-score; for AACTGAGT: -0.12 E-score. With CCCTACAC, the binding signal was 0.424 E-score. The figure for ACGGATAA is 0.158 E-score; for CGTCTATA it is 0.0332 E-score. The figure for ACGCCGAC is 0.127 E-score; for AAGTATTC it is -0.284 E-score. The same measure for ACTCCCGA: 0.172 E-score; for CTCTGCCA: -0.111 E-score; for GGCACAAA: 0.103 E-score. As for ATTTCCAG, the binding signal was -0.132 E-score.

On to CAAATCAA, for which the binding signal is 0.00417 E-score.

For ATCGGGAA, the binding signal is -0.245 E-score. The figure for ATTACCCC is 0.294 E-score; for CACCGGCG it is 0.244 E-score.

For ATTTGGAA, the binding signal was -0.0523 E-score. The figure for ACACGAAT is 0.31 E-score; for CATGCTGA it is -0.0309 E-score.

On to CTCACGTA, for which the binding signal is -0.0413 E-score. The same measure for CAGCGAGG: -0.12 E-score; for AGACCAGC: -0.213 E-score; for TCGTTTAA: -0.25 E-score. The figure for CAATCCGA is -0.113 E-score; for ATGAAAAT it is -0.19 E-score; for ATTGTTAG it is -0.173 E-score. The figure for TGGGAACA is 0.172 E-score; for ATGGGACG it is -0.311 E-score.

As to ACGTCCAA, the binding signal is -0.105 E-score. The figure for AGACTCAC is -0.0936 E-score; for AAGGTGCT it is 0.0677 E-score; for ACATAGAT it is -0.33 E-score. The same measure for AATTGTGG: 0.0421 E-score; for GGGTCCGA: 0.0814 E-score; for AAACCTAC: 0.00187 E-score.

In the case of CACCTCGG, the binding signal is 0.269 E-score. The same measure for AAAATTTA: -0.31 E-score; for ATCATCAG: -0.231 E-score. The figure for CCGCAAGA is -0.249 E-score. The figure for AATCTAAC is -0.0446 E-score; for CTGCACGC it is -0.134 E-score; for ATGATAGC it is -0.0849 E-score. For the sequence ATTGGGCG, the binding signal is -0.0009 E-score. The figure for AAAAATGA is -0.212 E-score; for AGATTGAC it is -0.0336 E-score. The figure for AAGCCTGT is -0.209 E-score. The figure for GGAACACC is 0.474 E-score; for GGGCGCTA it is 0.0962 E-score; for GCCGCATA it is 0.00196 E-score. Take ACCATTGC: the binding signal was -0.0641 E-score. The same measure for CTAGGACC: -0.134 E-score; for CTGCTACC: -0.151 E-score. The same measure for AGTAGCCG: 0.0101 E-score; for ATGGGTAA: -0.022 E-score. In the case of CCAGTCGC, the binding signal was -0.108 E-score. With ATTTTATA, the binding signal is -0.0862 E-score. The same measure for CAGGTGGG: 0.0536 E-score.

As to AACTCGGC, the binding signal was -0.0225 E-score. Take AAGCTAGA: the binding signal was -0.192 E-score. On to ACAGTCGA, for which the binding signal was -0.191 E-score. Consider AGTTTGTG, for which the binding signal is -0.0491 E-score. The same measure for CAAGGTGC: 0.124 E-score; for TAGATCCA: -0.053 E-score; for ACCCCCAG: 0.23 E-score.

Regarding CGATTCCG, the binding signal was -0.0162 E-score. The same measure for CATAAAAC: -0.0368 E-score. The figure for ATCCGAGC is -0.114 E-score; for AGGCGCTC it is -0.094 E-score; for AAGTCCAG it is -0.0406 E-score. In the case of ATATTTAG, the binding signal came to 0.0342 E-score. The same measure for AACGGGAT: -0.0665 E-score; for CATTACAA: -0.157 E-score; for GACTTAGA: -0.177 E-score. The same measure for AGGTGCGA: 0.0878 E-score; for ATTTCGAG: -0.226 E-score.

Turning to AAGGGGGA, the binding signal amounted to 0.174 E-score. The same measure for GCCTAGAA: -0.193 E-score; for CCAACGAA: -0.0433 E-score. The same measure for CATAAAAA: -0.258 E-score; for GTAGCCCA: -0.126 E-score; for TAGGTGGA: -0.0388 E-score. As for AAGCTGAT, the binding signal was 0.0276 E-score. As to CCAGACGA, the binding signal is -0.158 E-score.

For the sequence ATGCTCTC, the binding signal was -0.247 E-score. The figure for CATAAGCC is -0.192 E-score. Turning to ATCGTTTG, the binding signal was -0.187 E-score. The figure for CTGTCCGA is -0.128 E-score. The figure for CGCGGGTC is 0.0962 E-score; for TGGGGACA it is 0.146 E-score. The figure for CGATCCAG is 0.0116 E-score. With CGTGTTAA, the binding signal stood at 0.391 E-score. With CAGGGTCG, the binding signal is 0.0841 E-score. The same measure for ACGTGGAC: -0.144 E-score. Consider ACTAAGGC, for which the binding signal is -0.209 E-score. Regarding CACGAGTG, the binding signal was found to be 0.317 E-score.

Consider TGACCTCA, for which the binding signal was 0.0447 E-score. The same measure for AAGGGCAT: -0.146 E-score.

Take AATAGCTC: the binding signal is -0.133 E-score.

With CAGATAGC, the binding signal is -0.26 E-score. The same measure for CTCACAAC: -0.0671 E-score; for CCTCGCAG: -0.0925 E-score. Take CCGTCGCC: the binding signal was -0.0877 E-score.

Take CCTGAAGG: the binding signal was -0.0523 E-score. The figure for AATCGTTG is -0.0486 E-score. Take AGTAGGGA: the binding signal was -0.218 E-score. The same measure for CAAGCAGA: -0.166 E-score; for CCGTCCAG: -0.0624 E-score; for CCACTATC: -0.0324 E-score. Take GGAACAGA: the binding signal was -0.0364 E-score. The same measure for ATTTCGCC: -0.141 E-score; for CGACTCTC: 0.0802 E-score; for CGTGTGGA: 0.159 E-score.

As for AATGAAGT, the binding signal is -0.0477 E-score.

In the case of CACAATGC, the binding signal is -0.02 E-score. The same measure for ACAACGGG: -0.0854 E-score; for GATTCGCC: -0.147 E-score. Regarding CTAAACAC, the binding signal came to 0.364 E-score. The same measure for TATGAGGA: -0.106 E-score; for AGAGTTAG: -0.0385 E-score. GACCTTGA: the binding signal was -0.283 E-score.

Take AGGGGACG: the binding signal turned out to be 0.0251 E-score. For the sequence ATGGGTCA, the binding signal was -0.0198 E-score.

As for CCTCATAG, the binding signal was -0.182 E-score. The figure for AAAGTCCA is -0.0664 E-score. The figure for GTCCAAGA is -0.0268 E-score; for CGACATTA it is -0.00988 E-score. The figure for GTGTCAAC is 0.443 E-score; for TACAGCCA it is -0.239 E-score; for ATTATAGC it is -0.14 E-score. With CATGTAAG, the binding signal is -0.212 E-score. The figure for AGTCCGCC is -0.163 E-score; for ATTACCGG it is -0.1 E-score; for ACCTGTTG it is 0.0724 E-score. The same measure for CGGATACC: 0.366 E-score; for ATTTAATC: 0.0382 E-score.

As for CAGATAAG, the binding signal was -0.0582 E-score. Consider CGGACTCC, for which the binding signal was 0.0869 E-score. The same measure for GGCTGACC: -0.026 E-score; for ATACTGAG: 0.114 E-score; for GCGTACGC: 0.235 E-score. The figure for ATCGCTTG is -0.245 E-score; for ACTGTACC it is 0.0342 E-score. For CGTATGAA, the binding signal was -0.128 E-score. The figure for CTGCTGCC is -0.194 E-score; for CCTGCTAA it is -0.0954 E-score. Turning to CGGCTTGA, the binding signal was -0.139 E-score. Turning to ATCGGGGG, the binding signal worked out at 0.141 E-score. The figure for GACCGAAA is -0.3 E-score. The same measure for GGGACGAA: -0.0615 E-score; for CTGTCCTA: -0.133 E-score; for CCTTTGGC: 0.0541 E-score. The same measure for AGATCTGC: -0.0398 E-score. With ATCAGATC, the binding signal worked out at 0.141 E-score. The same measure for CCTTTGGA: -0.0559 E-score. Regarding ATTTTCGA, the binding signal is -0.0972 E-score. As to CATATTCG, the binding signal was -0.276 E-score. On to AGATTCAT, for which the binding signal was -0.0229 E-score. CTTTGGAC: the binding signal was -0.0351 E-score.

Consider ATAGGCAG, for which the binding signal was -0.145 E-score. The same measure for ACGGGTGC: 0.237 E-score; for GCTGACAA: -0.0435 E-score. The same measure for CTAATCAG: -0.061 E-score; for GAAGCGAA: -0.315 E-score.

Turning to GACTGAAA, the binding signal is -0.167 E-score. As to TAGCGATA, the binding signal is -0.0721 E-score. The same measure for CCGATGTC: -0.176 E-score; for TTTAGAAA: -0.188 E-score; for ACGCCGGG: 0.16 E-score. The figure for GATGCCTA is -0.0508 E-score.
